# Assay results taken from publication PMC6919601, “Identification of Plasmodium dipeptidyl aminopeptidase allosteric inhibitors by high throughput screening” (PLoS ONE, 2019).
# “And” between values parts separate entries of the source, which are not always exact repeats. Identical values can stand only once. Among all 110,000 compounds or so, about 230 (0.21%) showed an effect of 50% or more. The list shows a part of the results.
# Biological target: DPAP1 (Plasmodium falciparum, UniProt Q8IIJ9)
# Experiment: primary screen, percent inhibition; read by cleavage of a fluorogenic dipeptide substrate; higher = more effect of the substance
# Set-up: species or system P. falciparum D10 trophozoite lysates; single well
# 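Further: 30 min substrate incubation versus DMSO and 10 µM JCP410 controls.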
# DPAP1, sequence (Q8IIJ9 whole entry, looked up): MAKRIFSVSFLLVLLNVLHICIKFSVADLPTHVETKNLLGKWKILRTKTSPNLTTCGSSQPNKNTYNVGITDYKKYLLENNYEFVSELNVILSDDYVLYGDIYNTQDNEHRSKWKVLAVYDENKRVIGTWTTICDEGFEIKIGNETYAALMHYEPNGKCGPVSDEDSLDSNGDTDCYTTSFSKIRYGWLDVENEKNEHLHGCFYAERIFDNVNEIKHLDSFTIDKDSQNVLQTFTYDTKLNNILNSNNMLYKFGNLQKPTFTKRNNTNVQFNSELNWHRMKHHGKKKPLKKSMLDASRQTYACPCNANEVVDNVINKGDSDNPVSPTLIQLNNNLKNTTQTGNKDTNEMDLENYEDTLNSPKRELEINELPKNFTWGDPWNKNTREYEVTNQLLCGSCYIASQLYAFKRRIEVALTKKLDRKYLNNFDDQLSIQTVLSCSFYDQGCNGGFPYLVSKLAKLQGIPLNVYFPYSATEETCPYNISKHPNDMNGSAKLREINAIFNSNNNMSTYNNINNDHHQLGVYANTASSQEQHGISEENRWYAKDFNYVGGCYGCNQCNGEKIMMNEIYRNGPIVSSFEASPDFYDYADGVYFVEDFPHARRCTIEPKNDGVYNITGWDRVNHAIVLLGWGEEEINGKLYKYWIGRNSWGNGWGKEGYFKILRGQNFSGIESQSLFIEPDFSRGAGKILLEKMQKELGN
row,SMILES,% Inhibition @ 10 uM
1,CC(C)(CO)Nc1ncnc2onc(-c3ccc(F)cc3)c12,3.94%
2,Brc1ccc(CN2CCN(Cc3cccnc3)CC2)cc1,-1.65%
3,c1ccc(CN2CCC(N3CCSCC3)CC2)cc1,1.88%
4,COc1cc(C2C(C(=O)c3cc4ccccc4o3)=C(O)C(=O)N2CCCN(C)C)cc(OC)c1OC (centres unmarked),-1.33%
5,O=C(OCc1ccccc1Cl)c1ccc(-n2cccn2)cc1,1.76%
6,O=C1CC(/C=C/c2ccccc2)=Nc2ccccc2N1,-2.42%
7,CC1(C)CC(=O)c2c(-c3ccc(Cl)cc3Cl)n[nH]c2C1,-3.46%
8,CC(=O)c1cc2ccc(O)cc2oc1=O,0.035%
9,CCOC(=O)N1CCN(C(=O)CSc2nnc(CNC(=O)c3ccccc3F)o2)CC1,-1.58%
10,COc1ccc(Br)cc1C1CC(=O)Nc2c1ccc1ccccc21 (centres unmarked),-0.173%
11,CCc1ccccc1N(CC(=O)NC1CCCC1)S(=O)(=O)c1ccc(C)cc1,-0.796%
12,O=C(Nc1ccc(N2CCCC2)c(Cl)c1)c1ccc(Br)o1,-0.473%
13,O=C(Nc1ccc(S(=O)(=O)NCCc2ccccc2)cc1)C1CCCO1 (centres unmarked),-5.35%
14,CC(=O)n1cc(C2C(=O)NN=C2C)c2ccccc21 (centres unmarked),2.6%
15,Cc1nc(SCC(=O)c2ccccc2)c(C#N)c(C)c1C,-0.712%
16,Cc1ccc(C)c(N2C(=O)CC(N3CCC(C(N)=O)CC3)C2=O)c1 (centres unmarked),-0.545%
17,C#CCNCc1ccco1,1.67%
18,CCOC(=O)c1cc(-c2ccccc2)n(CCC(=O)NC(C)c2ccccc2)c1C (centres unmarked),12.7%
19,CCN(CC)CC(=O)Nc1sc2c(c1C(N)=O)CCCC2,-1.54%
20,Cc1nnc2c(NCc3ccc(F)cc3)nc3ccccc3n12,5.84%
21,CNC(=O)c1c(NC(=O)Cc2coc3c(C)c(C)ccc23)sc2c1CCCC2,-4.19%
22,COc1ccccc1OCC(=O)Nc1ccc(Cl)cc1,-1.17%
23,COc1cc(SC)ccc1C(=O)Nc1cccc(Br)c1,0.777%
24,COc1ccc2nc(SCC3=CC(C)(C)N(C(C)=O)c4ccccc43)nc(C)c2c1,-0.994%
25,NC(=O)c1ccccc1NS(=O)(=O)c1ccc(F)cc1,1.59%
26,CCN1C(c2ccccc2)C(C)C(=O)C(C)C1c1ccccc1 (centres unmarked),3.94%

row,SMILES,% Inhibition @ 10 uM
1,CCc1cccc(C)c1NC(=O)CSc1nc2c(c(=O)n(C)c(=O)n2C)n1C,4.01%
2,Cc1cc(C)cc(NC(=O)C(C)Sc2ccccc2)c1 (centres unmarked),-2.88%
3,CCNC(=O)CN(Cc1ccccc1)S(=O)(=O)c1ccc(Cl)cc1,-9.18%
4,CCOC(=O)c1cccc(Cn2nnc3sc4c(c3c2=O)CCC(C)C4)c1 (centres unmarked),-0.946%
5,CCOC(=O)c1c(S(=O)(=O)NCCc2nc3ccccc3[nH]2)c(C)n(C)c1C,-5.5%
6,CCC1CCCCN1CCCNC(=O)CN1C(=O)C(c2ccccc2)Oc2cccnc21 (centres unmarked),-2.39%
7,CC1CC(OCC(O)CN2CCN(c3ccccc3F)CC2)CC(C)(C)C1 (centres unmarked),17.4%
8,O=C(NCCn1ccc2ccccc21)c1cc2ccccc2oc1=O,1.97%
9,CC(C)=C1C2CCC1C1C(=O)N(c3nccs3)C(=O)C21 (centres unmarked),-6.62%
10,CN1C(C(=O)c2ccccc2)=C(N2CCCCC2)c2ccccc2S1(=O)=O,-2.34%
11,C=CCOc1ccc(C2C(C#N)=C(N)OC3=C2C(=O)c2ccccc2C3=O)cc1 (centres unmarked),7.99%
12,CCC1CCc2c(sc(NC(=O)CC(C)C)c2C#N)C1 (centres unmarked),5.66%
13,Cc1cc(C)n2nc(CC(=O)NC3CCCC(C)C3C)nc2n1 (centres unmarked),4.47%
14,CC(C)(C)c1ccc(-c2cc(N)n(S(=O)(=O)c3ccc(F)cc3)n2)cc1,-11%
15,N=C1/C(=C/c2cccn2Cc2ccccc2)C(=O)N=C2SC=C(c3ccccc3)N12,-3.28%
16,COc1ccc(-c2csc(/C(C#N)=C\c3cccs3)n2)cc1,3.72%
17,CCSc1nc(-c2ccccc2Cl)nc2c1Cc1c(CO)cnc(C)c1O2,5.09%
18,CCNC(=O)/C(=C\c1ccc2c(c1)OCO2)NC(=O)c1ccc(Br)cc1,-2.64%
19,CCn1c(SC)nc2sc3c(c2c1=O)CC(C)(C)OC3,-4.67%
20,COc1ccc(C(=O)N2CCN(c3ccc(C)cc3)CC2)cc1OC,-1.52%
21,CCN1CCCC1CNCc1ccc(OCc2ccc(Cl)nc2)c(OC)c1 (centres unmarked),-0.0678%
22,c1ccc(C2CCC(N3CCOCC3)CC2)cc1 (centres unmarked),1.57%
23,COc1ccc2nc3c(nc2c1)C(=O)c1ccccc1-3,-4.61%
24,CCO/C(O)=C1\C(C)=NC(=S)NC1c1ccc(OCC(=O)N2CCOCC2)c(OC)c1 (centres unmarked),-5.36%
25,CCSC1=C(C#N)C(c2cccc3ccccc23)CC(=O)N1 (centres unmarked),4.15%
26,COc1ccc(-c2ccc(CCC(=O)O)n2NC(=O)c2ccccc2OC)cc1,-0.169%

row,SMILES,% Inhibition @ 10 uM
1,CC1=C(C(=O)NCCCN2CCCC2=O)C2(CCCCC2)OC1=O,-7.53%
2,O=C(NCCOCc1ccccc1)c1ccccc1Cl,2.18%
3,CCN(CC)C(=S)NC(=O)c1cccnc1,-3.48%
4,CCc1cc(=O)oc2c3c(c(Cl)cc12)OCN(Cc1ccco1)C3,-2.57%
5,CCNc1nc(NCC)n2c(SCC(=O)c3cccs3)nnc2n1,0.9%
6,CCO/C(O)=C1\C(C)=NC(=S)NC1c1cc(C(C)C)c(OC)cc1C (centres unmarked),-0.142%
7,Cc1nn(C)cc1C(=O)Nc1c(C)nn(Cc2ccccc2Cl)c1C,2.09%
8,C=C1c2cc(C)c(C)cc2NC(=O)N1c1cccc(Cl)c1,1.92%
9,CSc1ccc(C2C(C#N)=C(N)Oc3[nH]c(C)nc32)cc1 (centres unmarked),1.02%
10,CCn1cc(C2NC(=O)c3sc4nc(C(F)(F)F)cc(C)c4c3N2)c(C)n1 (centres unmarked),-5.06%
11,Cc1cccc(OCC(=O)Nc2ncccn2)c1,-1.04%
12,CC1=C(n2nnc3ccccc32)C(c2ccccc2)C(C#N)=C(N)O1 (centres unmarked),3.32%
13,CCC(=O)N1C(C(=O)NCc2ccc(OC)cc2)CSC12CCN(C)CC2 (centres unmarked),-0.868%
14,Cc1ccc(NC=C2C(=O)CC(c3ccccc3)CC2=O)cc1C (centres unmarked),-1.38%
15,O=S(=O)(NCc1ccccn1)c1ccc(Oc2ccccc2)cc1,-5.57%
16,COc1ccccc1OCC(=O)Nc1ccc(C)cc1,3.91%
17,Cc1ccc(-c2csc(NC(=O)C3CC3)n2)cc1,-6.27%
18,CC(=O)Nc1ccc(S(=O)(=O)NCc2cn(-c3ccccc3)nc2-c2ccccc2)cc1,0.907% and -1.37%
19,Cc1cc(C)nc(NS(=O)(=O)c2ccc(NC(=S)NC(=O)c3ccccc3)cc2)n1,-0.129%
20,CC(=O)n1c(C#N)c(O)c2ccccc21,-1.42%
21,Cc1ccc(S(=O)(=O)NCc2ccc(C(=O)NCCCSC3CCCCC3)cc2)cc1,0.718%
22,O=C1CNC(=O)/C1=C\c1ccc(Br)cc1,-3.06%
23,CCC(COc1nnnc2ccccc12)NC(=O)c1nccc2ccccc12 (centres unmarked),-1.07%
24,CC(C)Oc1ccc(NC(=O)C23CC4CC(CC(C4)C2)C3)cc1,0.00178%
25,Cc1nn(C(=O)CCCC(=O)NCCCN2C(C)CCCC2C)c2ccccc12 (centres unmarked),3.87%
26,N#CCNC(=O)C(Cc1ccc(Cl)cc1)NC(=O)OCc1ccccc1 (centres unmarked),-10.7%

row,SMILES,% Inhibition @ 10 uM
1,O=C1CC(N2CCN(Cc3ccccc3)CC2)C(=O)N1c1ccc2c(c1)OCCO2 (centres unmarked),5.15%
2,COCC(=O)Nc1cccc2ccccc12,-0.425%
3,N#C/C(=C/c1ccc(F)cc1)c1nc(-c2ccc(F)cc2)cs1,7.33%
4,O=C1C(=O)N(C(=O)Nc2cccc3ccccc23)c2ccccc21,1.29%
5,N#CC1=C(SCc2ccccc2)NC(=O)CC1c1ccc(F)cc1 (centres unmarked),0.673%
6,Cc1ccccc1-c1noc(-c2ccc([N+](=O)[O-])cc2)n1,-4.11%
7,CCN1CCC(N(CC)Cc2ccccc2)CC1,-0.0953%
8,Cc1c(Cl)cccc1NC(=O)CCc1ccccc1,3.74%
9,O=c1c2c(nc(SCCc3ccccc3)n1-c1ccccc1)-c1ccccc1CC21CCCCC1,-2.2%
10,COc1cc(S(=O)(=O)n2c(C)nc3ccccc32)ccc1Br,-7.17%
11,COP(=O)(OC)C1(Nc2ccc(C)cc2)CCCCC1,3.42%
12,OCC1CCCCN1Cc1ccc(Br)o1 (centres unmarked),2.65%
13,O=C1CC(N2CCC(c3ccncc3)CC2)C(=O)N1Cc1ccccc1 (centres unmarked),-5.72%
14,CCN(CC)S(=O)(=O)c1cc(-c2nnc(O)c3ccccc23)ccc1C,-1.6%
15,Cc1ccc(C(=O)Nc2cccc(O)c2)cc1,2.17%
16,COc1ccc(C2C(C(=O)OCc3ccccc3)=C(C)N=C3SCCC(=O)N32)cc1OC (centres unmarked),-1.17%
17,CC(C)OCCCNC(=O)c1nnc(Cc2cccc(Cl)c2)o1,4.95%
18,O=C(NCCc1ccccc1)Nc1ccc(Cl)c(Cl)c1,-0.414%
19,Cc1cc(Cl)ccc1OCC(=O)N(Cc1cccs1)C1CCS(=O)(=O)C1 (centres unmarked),2.1%
20,O=C(O)c1c(-n2cnnn2)sc2c1CCCC2,-4.67%
21,COc1cc(C(=O)c2cc(Cl)ccc2N)cc(OC)c1OC,-3.38%
22,COc1cc(C)c(C(C)C)cc1S(=O)(=O)NCCN1CCOCC1,-7.47%
23,COc1cccc(CNC(=O)c2sc3ccccc3c2Cl)c1,-2.07%
24,COc1ccc(-c2cc(-c3ccccc3)nc(-n3nc(-c4ccccc4)cc3O)n2)cc1OC,1.87%
25,CC(C)CCN(C)C1CCN(S(=O)(=O)c2ccc(C(C)(C)C)cc2)CC1,2.05%
26,CN(CC(=O)N1CCc2ccccc2C1)S(=O)(=O)c1c[nH]cn1,3.24%
